Experimental findings from PubChem BioAssay AID463173 (ICCB-Longwood Screening Facility, Harvard Medical School, 2010) are described below.

Among all 52,000 compounds or so, about 1,700 (3.3%) were called active. Rule as the data show it: active = survival mostly below about 52% (no sharp cut-off); inactive = mostly above about 56%. The list shows a part of the results.

The subject of the assay is Wild type. The experiment in a line: S. aureus survival, RN4220 and DeltatarO strains – OD600, teichoic acid synthesis inhibitors, primary screen (AID 463173). The note with it: S. aureus RN4220 wild type/DeltatarO growth, OD600, 18 h, hits give low values, screened at 18.75 µg/mL (by protocol).
Regarding `COc1cccc(CN2CCCN(CC(=O)Nc3ccc4c(c3)OCCO4)S2(=O)=O)c1`, the survival was inactive: 71%. For `Cc1ccc(-c2nnc(SCC(=O)c3ccc(Cl)cc3)n2-c2ccccc2)cc1` the value was inactive: 94%; for `Cc1cccc(N2CCN(S(=O)(=O)c3ccc4c(c3)C(C(C)C)C(=O)N4)CC2)c1C` (centres undefined), inactive: 66%; for `CCNC(=S)N(Cc1ccccc1)Cc1nc2ccccc2c(=O)[nH]1`, inactive: 100%. As to `Cc1nc2nc(NC(=O)c3ccc(C(C)(C)C)cc3)[nH]n2c(=O)c1Cl`, the survival was inactive: 101%. For the compound `Cc1oc(-c2ccccc2F)nc1CSCC(=O)N1CCN(c2ccccc2)CC1`, the survival is inactive: 62%.

For `COc1cccc(N(Cc2nnc3n2CCCCC3)C(=O)Nc2ccccc2)c1`, the survival was inactive: 131%.

Take `CCOc1ccc(CNC(=O)c2ccc3c(c2)N(CC)CCS3)cc1`: the survival was inactive: 92%.

For the compound `CCCCOc1ccc(C(=O)NCCc2sc(-c3ccc(OC)c(OC)c3)nc2C)cc1`, the survival is inactive: 81%. For `CN(c1ccccc1)C(c1ccc(F)cc1)c1nnnn1C1CCCC1` (centres undefined) the value was inactive: 111%; for `COc1ccc(N2CCN(C(=O)CSc3c4c(nc5ccc(Cl)cc35)CCCC4)CC2)cc1`, inactive: 46%.

Consider `O=C(Nc1cccc(O)c1)c1cc2nc(-c3ccc(Br)cc3)cc(C(F)(F)F)n2n1`, for which the survival was inactive: 129%. For `CC1(C)NCCNC1=O` the value was inactive: 119%; for `COc1cc(NC(=O)CC2C(=O)N(c3cccc(C)c3)C(=O)N2Cc2ccco2)cc(OC)c1` (centres undefined), inactive: 95%; for `COc1ccc(S(=O)(=O)c2c(Nc3c(C)cccc3C)sc(C(=O)c3ccc4c(c3)OCO4)c2N)cc1`, inactive: 74%. For `Cc1ccc(-n2nc3c(=O)n(CC(=O)NC(C)C)nc(C)c3c2C)cc1` the value was inactive: 65%. As for `COc1ccc(CN(C)c2ccc(-c3nc(-c4ccccc4)no3)cc2[N+](=O)[O-])cc1`, the figure is inactive: 80%; as for `COc1cccc(CCNC(=O)c2cnc3sc(N4CCCCCC4)nn3c2=O)c1`, inactive: 80%; as for `O=C(Nc1ccc2oc(-c3cccnc3)nc2c1)c1ccc(-c2cccc(Cl)c2)o1`, inactive: 77%.

Regarding `CC1CCCN(c2ccc(C(=O)NCCc3ccccc3)cn2)C1` (centres undefined), the survival is inactive: 105%. For `CCC(CC)C(=O)Nc1ccc2nc(SCc3ccccc3)sc2c1` the value was inactive: 88%; for `COc1ccc2c(CC(=O)Nc3ccc(C)cc3)coc2c1`, inactive: 90%.

For the compound `Cc1cccc(Nc2ncc(NC(=O)c3cccc(F)c3)c(Nc3cccc(C)c3)n2)c1`, the survival is inactive: 86%.

In the case of `CS(=O)(=O)c1ncc(Cl)c(C(=O)Nc2c(C(=O)Nc3ccccc3)oc3ccccc23)n1`, the survival was inactive: 87%. As for `O=C(CSc1nnc(-c2ccncc2)n1-c1ccccc1)Nc1ccc(Cl)c(Cl)c1`, the figure is inactive: 71%. On to `Cc1nc2c(cnn2-c2ccccc2)c(=O)n1-c1ccccc1`, for which the survival was inactive: 126%.

Consider `O=C(Cn1c(-c2cccs2)cc2ccccc21)N1CCN(c2ccccc2F)CC1`, for which the survival was inactive: 138%. With `COc1ccc(NC(=O)CSC2=Nc3ccccc3C3=NC(CC(=O)NCc4ccco4)C(=O)N23)cc1` (centres undefined), the survival was inactive: 66%. As for `CCN(C(=O)CSc1nnc(-c2cc(OC)c(OC)c(OC)c2)o1)c1ccccc1`, the figure is inactive: 87%; as for `Clc1ccc(CCNc2nc3ccccc3c3nc(-c4ccccc4)nn23)cc1`, inactive: 38%. For `Cc1cc(C)nc(N(C#N)CC(=O)c2ccccc2)n1` the value was inactive: 121%; for `CCOc1ccc(NC(=O)Cn2cc(C(=O)c3cccs3)c3ccccc32)cc1`, inactive: 75%; for `CC(OC(=O)c1cc2sccc2n1C)C(=O)NCC1CCCO1` (centres undefined), inactive: 107%. For `CCOc1cccc(CC(=O)NCc2ccc3c(c2)CCN3C(=O)c2ccc(F)cc2)c1OCC` the value was inactive: 71%.

For `Cc1ccc(C(=O)N(Cc2ccco2)Cc2ccco2)cc1`, the survival is inactive: 82%. For `CCOc1cc(CNC(=O)c2ccccc2NC(=O)c2nsc3ccccc23)ccc1OC` the value was inactive: 72%; for `O=C(CSc1nc2ncccc2[nH]1)Nc1cc(F)ccc1F`, inactive: 75%; for `O=C(CCn1c(=O)c2cccn2c2cccnc21)NCc1ccccc1Cl`, inactive: 86%. In the case of `CCOc1ccc(C(=O)c2cn(CC(=O)Nc3ccc4c(c3)OCO4)c3ccc(OC)cc3c2=O)cc1`, the survival was inactive: 95%. For `O=C(NCC(c1cccnc1)N1CCN(c2ccccc2F)CC1)C(=O)Nc1ccc(F)cc1F` (centres undefined) the value was inactive: 89%; for `COc1cccc(N2CCN(C(=O)C3CCCN(S(=O)(=O)c4cccc5nsnc45)C3)CC2)c1` (centres undefined), inactive: 80%; for `Cc1ccc(CNC(=O)CCc2c(C)nn(-c3ccc(N4CCOCC4)nn3)c2C)cc1`, inactive: 135%.

With `COc1ccc2[nH]c3c(c2c1)CCn1c-3nc2ccccc2c1=O`, the survival is inactive: 114%. As for `O=C(Nc1cccc(Cl)c1)C1CCCN(c2nn3cc(-c4ccc(F)cc4)nc3s2)C1` (centres undefined), the figure is inactive: 68%; as for `CCn1c(=O)n(-c2ccc3c(c2)OCO3)c2nc(-c3ccc(C(C)C)cc3)nc(C(N)=O)c21`, inactive: 130%. As for `CCOc1ccc2c(c1)c(=O)c(C(=O)c1ccc(CC)cc1)cn2CC(=O)Nc1ccccc1OC`, the figure is inactive: 78%; as for `COc1ccc(OC)c(NC(=O)Cn2c(=O)c3cccn3c3ccccc32)c1`, inactive: 75%; as for `Cc1cc(C)nc(SCc2nnc(SCC(=O)N3c4ccccc4Sc4ccc(Cl)cc43)o2)n1`, inactive: 111%. For `Cc1ccc(Cl)cc1NC(=O)CSc1nc2ccccc2c2nc(-c3ccccc3)nn12` the value was inactive: 126%; for `CCOC(=O)C1CCN(C(=O)c2nn(-c3ccc(OC)c(Cl)c3)c(=O)c3c2c2ccccc2n3C)CC1`, inactive: 68%; for `CCOc1ccc(C(=O)Nc2cc(-c3nc4cc(OC)ccc4o3)ccc2C)cc1[N+](=O)[O-]`, inactive: 85%. With `Cc1ccc(S(=O)(=O)c2cn(CC(=O)Nc3cccc(Cl)c3)c3ccccc3c2=O)cc1`, the survival was inactive: 91%.

On to `O=C(Cn1cc(C(=O)C(F)(F)F)c2ccccc21)N1CCCCCC1`, for which the survival is inactive: 74%.

`CC1(C)N=C(SCc2ccc(F)cc2)c2ccccc2N1`: the survival was inactive: 153%. Consider `CCOc1ccccc1NC1(c2ccccc2)C(=O)c2ccccc2C1=O`, for which the survival is inactive: 78%. Regarding `CC1CCCCN1CCCNC(=O)c1cc(Sc2cccc(Cl)c2)nc2ccccc12` (centres undefined), the survival is inactive: 54%.

Consider `Cc1ccccc1CN1c2ccccc2-c2nc(SCC(=O)c3ccccc3)ncc2S1(=O)=O`, for which the survival is inactive: 66%. Consider `CCC(=O)N(Cc1ccco1)c1nc(-c2ccccc2)cs1`, for which the survival was inactive: 104%.

On to `O=C(COc1ccc2ccccc2c1)NC1CC(=O)N(c2ccc(F)cc2)C1` (centres undefined), for which the survival was inactive: 68%. As for `COc1ccc(NC(=O)C2CCCCN2)cc1OC` (centres undefined), the survival is inactive: 105%.

In the case of `Cc1ccccc1OCc1nc2c3cnn(-c4cccc(F)c4)c3ncn2n1`, the survival was inactive: 93%. For `Cc1c(CNC2CCCCC2)c(C(=O)O)c(C)n1Cc1ccccc1F` the value was inactive: 88%; for `CCNC(=O)c1ccc2c(c1)nc1n2CCCCC1`, inactive: 89%; for `CCNC(=O)c1c(NC(=O)Cc2coc3ccc(CC)cc23)sc2c1CCCC2`, inactive: 92%. As for `O=C1CCCc2nc(N3CCOCC3)sc21`, the figure is inactive: 89%. For `CCCCNC(=O)c1c(-c2ccccc2)c(-c2ccccc2)nn(C)c1=O` the value was inactive: 84%; for `Cc1oc2ncn(CC(C)C)c(=O)c2c1C(=O)N(CCN(C)C)Cc1ccccc1`, inactive: 99%; for `Cc1ccc2c(c1)N(C(=O)N1CCC(C(=O)NCc3ccccc3C)CC1)CC(C)O2` (centres undefined), inactive: 90%. With `CCCCNC(=O)c1ccc2c(c1)N(CC)C(=O)c1ccccc1S2`, the survival is inactive: 135%. For `COc1cccc(-n2cnc3scc(-c4cccs4)c3c2=O)c1` the value was inactive: 113%. For `COc1cccc(C2C(C(=O)Nc3ccc(Cl)cc3)=C(C)Nc3nc4ccccc4n32)c1OC` (centres undefined) the value was inactive: 106%; for `CC(=O)N1CCCc2cc(S(=O)(=O)N3CCN(c4ccccc4F)CC3)ccc21`, inactive: 45%; for `CCOC(=O)c1c(C)n(-c2ccccc2)c2ccc(OC(=O)COc3ccccc3)cc12`, inactive: 76%. As for `COc1ccc(N2CCN(C(=O)C3CCCN(C(=O)c4cc5sccc5n4C)C3)CC2)cc1` (centres undefined), the figure is inactive: 130%; as for `CCCc1nnc(NC(=O)c2cc(=O)c3ccccc3o2)s1`, inactive: 83%. On to `CC(=O)N1c2ccc(S(=O)(=O)NCc3ccccc3Cl)cc2CC1C` (centres undefined), for which the survival is inactive: 82%. Take `O=C(O)CCNc1ccc2c(c1)OCCO2`: the survival was inactive: 108%. As for `CC1=C(C(=O)Nc2cccnc2)C(c2cccc(F)c2)n2nc(SCc3ccccc3F)nc2N1` (centres undefined), the figure is inactive: 91%; as for `COc1ccc(C)cc1NC(=O)c1cc(S(=O)(=O)N2CCOCC2)cn1C`, inactive: 83%. For `O=C(CSc1nc(=O)[nH]c2c1CCCC2)NCc1ccccc1Cl` the value was inactive: 135%. On to `CCCCNC(=O)CN1C(=O)c2cccnc2Sc2ccccc21`, for which the survival was inactive: 81%. With `CCOc1ccccc1NC(=O)CCCc1nc(-c2ccccc2Cl)no1`, the survival was inactive: 74%.

Turning to `COc1ccc(CNC(=O)CCS(=O)(=O)c2cc(Br)cc3c2N(C(C)=O)C(C)C3)cc1` (centres undefined), the survival was inactive: 84%. As for `CCn1c2ccccc2c2cc(CN3CCN(Cc4cc(OC)c(O)c(OC)c4)CC3)ccc21`, the figure is inactive: 54%; as for `COc1ccc(N2CCN(c3ccc(-c4nc(-c5ccccc5)no4)cc3[N+](=O)[O-])CC2)cc1`, inactive: 83%. On to `COc1cc2[nH]c(=O)n(Cc3ccc(C(=O)N4CCN(c5ccc(Cl)cc5)CC4)cc3)c(=O)c2cc1OC`, for which the survival is inactive: 142%. `O=C(Nc1cccc(Cl)c1Cl)c1ccc2c(c1)N(Cc1cccc(Cl)c1)C(=O)c1ccccc1S2=O` (centres undefined): the survival is inactive: 77%. Consider `Cc1ccc(NC(=O)c2sc3ncn(Cc4cccc(F)c4)c(=O)c3c2C)c(Br)c1`, for which the survival is inactive: 82%. For `Cc1ccc(N(Cc2cccs2)C(=O)C(C)Oc2ccc(Cl)c(C)c2)cc1` (centres undefined) the value was inactive: 80%.
